About 31,000 (8.9%) of roughly 350,000 compounds were called active. The inconclusive results got no clear call from the source; some entries with a clear call stand among them for comparison. The call rests on the fitted dose curve; in most records, active means well fitted inhibition curve with a large enough effect; inconclusive means small, poorly fitted or top-dose-only effect; inactive means no such curve, though single readings can be large or run the other way. Potencies beside an inconclusive call are fits to weak or partial responses and may not hold up.
target: Histone-lysine N-methyltransferase EHMT2 (Homo sapiens) (UniProt Q96KQ7); assay: qHTS Assay for Inhibitors of Histone Lysine Methyltransferase G9a; details: G9a H3K9 monomethylation, AlphaScreen, 2 h; activity, negative = inhibition: at 59 µM (top of the series) unless noted; further: nearly all actives have a fitted effect of over 75% in size
UniProt Q96KQ7, sequence (Q96KQ7 whole entry, looked up): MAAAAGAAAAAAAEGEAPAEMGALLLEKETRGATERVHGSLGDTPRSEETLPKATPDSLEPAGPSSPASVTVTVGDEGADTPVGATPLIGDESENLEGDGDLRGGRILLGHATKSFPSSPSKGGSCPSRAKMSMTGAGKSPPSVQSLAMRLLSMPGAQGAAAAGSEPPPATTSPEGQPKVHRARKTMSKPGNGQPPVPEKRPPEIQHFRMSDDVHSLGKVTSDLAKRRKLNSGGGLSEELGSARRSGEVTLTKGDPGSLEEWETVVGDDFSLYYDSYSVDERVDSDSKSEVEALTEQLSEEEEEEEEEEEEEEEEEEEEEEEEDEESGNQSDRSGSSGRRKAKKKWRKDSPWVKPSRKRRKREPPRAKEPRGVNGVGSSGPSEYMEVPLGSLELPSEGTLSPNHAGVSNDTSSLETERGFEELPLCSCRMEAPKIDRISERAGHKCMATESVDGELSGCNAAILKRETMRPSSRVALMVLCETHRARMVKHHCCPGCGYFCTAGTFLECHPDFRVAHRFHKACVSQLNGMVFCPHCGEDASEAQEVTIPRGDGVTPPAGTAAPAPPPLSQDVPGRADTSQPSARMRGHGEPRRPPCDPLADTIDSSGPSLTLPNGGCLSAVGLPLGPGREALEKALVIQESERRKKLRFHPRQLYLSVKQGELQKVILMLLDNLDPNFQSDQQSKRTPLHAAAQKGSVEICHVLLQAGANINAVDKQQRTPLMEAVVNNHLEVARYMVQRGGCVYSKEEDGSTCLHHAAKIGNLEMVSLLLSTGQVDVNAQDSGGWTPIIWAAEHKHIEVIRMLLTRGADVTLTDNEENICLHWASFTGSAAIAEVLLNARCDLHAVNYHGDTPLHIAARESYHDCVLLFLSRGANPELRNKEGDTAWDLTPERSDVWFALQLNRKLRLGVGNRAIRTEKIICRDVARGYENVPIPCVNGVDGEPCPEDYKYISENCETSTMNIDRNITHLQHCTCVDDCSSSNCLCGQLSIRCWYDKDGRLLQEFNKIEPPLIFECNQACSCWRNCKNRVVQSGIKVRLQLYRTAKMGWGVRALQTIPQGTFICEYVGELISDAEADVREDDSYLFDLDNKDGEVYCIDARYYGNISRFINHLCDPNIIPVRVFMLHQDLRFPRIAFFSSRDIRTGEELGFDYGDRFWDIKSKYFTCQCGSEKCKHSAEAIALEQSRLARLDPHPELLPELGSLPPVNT
In short: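 AlphaScreen detection with an anti-monomethyl H3K9 antibody quantified product after a 2 h room-temperature reaction containing 500 nM biotinylated H3K9 peptide, 20 µM SAM and 20 nM enzyme, which had been preincubated 15 min with compound.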
On the % scale 0 is the no-effect control and ±100 the full control effect; potency means the concentration at half of the fitted maximal effect; tags describe the fitted curve by direction and shape.

Row | SMILES | Potency | activity, negative = inhibition
1 | CC(=O)N1N=C(c2ccc(C)cc2)CC1c1cn(-c2ccccc2)nc1-c1cccs1 (stereo not given) | inactive | 
2 | CC(C)(O)c1[nH]c2ccc(C#N)cc2c1C(C)(C)O | inactive | 
3 | Cc1csc(NC(=O)c2cccs2)n1 | inactive | 
4 | CCCCCCN1CC(=O)N2Cc3[nH]c4ccccc4c3C[C@H]2C1=O | inconclusive: 50.1 µM [inhibitor, partial curve, poor fit] | 
5 | COc1ccccc1N=NC1=C(O)CC(C)(C)CC1=O | inconclusive: 70.8 µM [inhibitor, single point] | 
6 | O=C(Nc1cccc(Cl)c1)C1CCCN(C2=NS(=O)(=O)c3ccccc32)C1 (stereo not given) | inconclusive: 56.2 µM [inhibitor, partial curve, poor fit] | 
7 | Cn1c(=O)c2c(nc(N3CCNCC3)n2Cc2cccc3ccccc23)n(C)c1=O |  | inconclusive: -54.2% [inhibitor]
8 | CNc1nn(-c2cccc(Cl)c2)nc1N | inconclusive: 1.78 µM [inhibitor, full curve, poor fit] | 
9 | COc1cc(C2=NOC(C(=O)N3CCCc4ccccc43)C2)cc(OC)c1OC (stereo not given) | inactive | 
10 | COc1cc([N+](=O)[O-])ccc1NC(=S)NCc1ccccn1 | inconclusive: 20 µM [inhibitor, single point] | 
11 | CC1=C(C(=O)OCc2ccccc2)C(c2ccc(C(F)(F)F)cc2)NC(=O)N1CCCCCC(=O)O (stereo not given) | inconclusive: 89.1 µM [inhibitor, single point] | 
12 | COc1ccc2[nH]c(=O)c(CN(Cc3ccc(C)cc3)Cc3nnnn3CC3CCCO3)cc2c1 (stereo not given) |  | inconclusive: -60.9% [inhibitor]
13 | N#CCCCSc1nnc(CSc2nc3ccccc3s2)n1-c1ccccc1 | inconclusive: 25.1 µM [inhibitor, single point] | 
14 | COc1ccc(N(Cc2ccco2)C(=O)c2ccccc2F)cc1OC | inconclusive: 89.1 µM [inhibitor, partial curve, poor fit] | 
15 | CCc1nnc(NC(=O)CSc2nnc(Cc3ccccc3)n2-c2ccc(OC)cc2)s1 | inconclusive: 14.1 µM [inhibitor, partial curve, poor fit] | 
16 | CCOC(=O)c1c(C)[nH]c(C(=O)Nc2cc(OCC)c(N3CCOCC3)cc2OCC)c1C | inconclusive: 3.55 µM [inhibitor, full curve, poor fit] | 
17 | O=C(c1ccc(CS(=O)Cc2ccccc2Cl)o1)N1CCN(c2cccc(Cl)c2)CC1 (stereo not given) | inconclusive: 39.8 µM [inhibitor, partial curve] | 
18 | N#CCCN(C(=O)CO/N=C/c1cccc([N+](=O)[O-])c1)c1ccccc1 | inconclusive: 79.4 µM [inhibitor, single point] | 
19 | COc1ccc(NC(=O)CSc2ccc(-c3ccccn3)nn2)cc1OC | inconclusive: 79.4 µM [inhibitor, single point] | 
20 | O=C(CSc1nc2ccsc2c(=O)n1CC1CCC(C(=O)O)CC1)c1ccc(F)cc1 (stereo not given) | inconclusive: 89.1 µM [inhibitor, single point] | 
21 | Cc1ccccc1N1CC(C(=O)N2CC(C)CC(C)C2)CC1=O (stereo not given) | inconclusive: 1.58 µM [inhibitor, partial curve, poor fit] | 
22 | Cc1ccc2c(c1)N(C(=O)N1CCC(C(=O)NC3CCCCCC3)CC1)CC(C)O2 (stereo not given) | inactive | 
23 | O=C(Cn1c(CN2CCCCC2)nc2ccccc2c1=O)NC1CCCCC1 | inconclusive: 70.8 µM [inhibitor, single point] | 
24 | Cc1ccc(NC(=O)CCC(=O)N2CCC(c3ccccc3)=N2)cc1S(=O)(=O)N1CCCCC1 | inconclusive: 89.1 µM [inhibitor, single point] | 

Row | SMILES | Potency | activity, negative = inhibition
25 | Cc1noc(C)c1-c1cncnc1N(C)Cc1ccco1 |  | inactive: -26% [at 0.501 µM]
26 | Cc1cccc(C[C@H](C(=O)O)N2C(=O)c3ccc(C(=O)O)cc3C2=O)c1 |  | inactive: 4.86% [at 12.7 µM]
27 | COc1ccc(C2CC(=O)C(C(c3ccc(O)cc3)C3C(=O)CC(c4ccc(OC)cc4)CC3=O)C(=O)C2)cc1 (stereo not given) | active: 25.1 µM | 
28 | CC(C)NC(=S)n1cc(C(=O)c2cc(Cl)cc(Cl)c2O)cn1 | inactive | 
29 | Cc1cc(C)cc(OCc2ccc(C(=O)Nc3ccccc3F)o2)c1 | inactive | 
30 | NC(=O)c1nn(-c2ccccc2)nc1NC(=O)CN1CCOCC1 |  | inconclusive: -74.7% [inhibitor]
31 | CCC(C)NC(=O)CSc1nnc(-c2ccc(Cl)cc2)n1N (stereo not given) | inconclusive: 89.1 µM [inhibitor, single point] | 
32 | N#CC1c2ccccc2C=CN1C(=O)c1ccccc1 (stereo not given) | inactive | 
33 | Cc1cc(C)n(-c2ccc(C(=O)OCC(=O)NCc3ccc(Cl)cc3)cc2)n1 | inconclusive: 50.1 µM [inhibitor, partial curve] | 
34 | COc1ccc(/C(C)=C2\SC(=S)N(CCC(=O)O)C2=O)cc1 | inconclusive: 28.2 µM [inhibitor, single point] | 
35 | CCc1cccc(NC(=O)CSc2ncccc2C(=O)Oc2ccccc2Cl)c1 | inconclusive: 28.2 µM [inhibitor, single point] | 
36 | O=C1Nc2ccc(Br)cc2/C1=C/c1ccc(C(=O)O)cc1 | inconclusive: 56.2 µM [inhibitor, partial curve, poor fit] | 
37 | Cc1ccc(-n2ncc3c(N4CCN(C)CC4)ncnc32)cc1Cl | inactive | 
38 | CCOc1ccc(NC(=O)CCS(=O)(=O)c2cccc3nonc23)cc1 | inactive | 
39 | CCOC(=O)c1c(NC(=O)c2cc(C)on2)sc(C)c1C | active: 3.16 µM | 
40 | CC1(C)CCN2CCC(C)(C)c3c(O)ccc1c32 | active: 10 µM | 
41 | C=CCn1c(=S)[nH]c2ccccc2c1=O | inconclusive: 20 µM [inhibitor, single point] | 
42 | CC(=O)c1c(N2CCOCC2)nc2ccc(Br)cc2c1-c1ccccc1 | inactive | 
43 | O=C(CSC1=NCCS1)Nc1ccc(F)cc1 | inactive | 
44 | COc1cccc(NC(=O)C2CC2(c2cccc(OC)c2)c2cccc(OC)c2)c1 (stereo not given) | inconclusive: 1.58 µM [inhibitor, full curve, poor fit] | 
45 | CCOC(=O)c1c(C)[nH]c(C)c1C(=O)CSc1ncccn1 | inconclusive: 3.16 µM [inhibitor, single point] | 
46 | CCOC(=O)Cn1c(CCC(=O)O)ccc1-c1ccc(F)cc1 | inconclusive: 25.1 µM [inhibitor, single point] | 
47 | CCOC(=O)c1[nH]c2cc(OC)c(OC)cc2c1NC(=O)CN1CCN(C)CC1 | inconclusive: 1.58 µM [inhibitor, single point] | 
48 | Cc1cc(NC(=O)c2ccccc2F)ncc1NC(=O)c1cccs1 | inconclusive: 50.1 µM [inhibitor, partial curve] | 

Row | SMILES | Potency | activity, negative = inhibition
49 | O=C(O)c1ccc(N2C(=O)c3[nH]nc(-c4ccccc4)c3C2c2ccccc2)cc1 (stereo not given) | inconclusive: 35.5 µM [inhibitor, partial curve, poor fit] | 
50 | O=C(Nc1ccccc1)c1ccc(-c2ccccc2)s1 | inconclusive: 79.4 µM [inhibitor, partial curve, poor fit] | 
51 | Cc1nc2cc(NC(=O)COc3ccccc3C#N)ccc2n1-c1ccccc1 | inconclusive: 89.1 µM [inhibitor, single point] | 
52 | COc1ccccc1N1CCN(C(=O)COc2cccc3ccccc23)CC1 | inactive | 
53 | CCOc1ccccc1CNC(=O)c1ccc2c(c1)sc1nc(-c3cccc(OC)c3)cn12 | inconclusive: 39.8 µM [inhibitor, partial curve, poor fit] | 
54 | CC(C)(C)c1cc(CN2CCCC(O)C2)c(O)c(C(C)(C)C)c1 (stereo not given) |  | inconclusive: -61% [inhibitor]
55 | COc1ccc(Cl)cc1C(=O)Nc1nnn(C)n1 | inactive | 
56 | Cc1cc(N=Cc2c(O)n(-c3cccc(C(F)(F)F)c3)c(=O)c3ccccc23)no1 | inactive | 
57 | O=c1c2ccccc2sn1-c1ccc(F)cc1 |  | inactive: 2.22% [at 0.501 µM]
58 | COc1ccc(-c2noc(-c3ccc(N4CCCCC4C)c([N+](=O)[O-])c3)n2)cc1OC (stereo not given) | inconclusive: 22.4 µM [inhibitor, partial curve, poor fit] | 
59 | CCOC(=O)N1CCN(c2c(NCC3CCN(Cc4cccc(C)c4)CC3)c(=O)c2=O)CC1 | inconclusive: 50.1 µM [inhibitor, partial curve] | 
60 | COC(=O)N1C(=O)[C@](c2ccccc2)(C2CCCCC2)N1C(=O)OC | inactive | 
61 | c1ccc(-c2ccccc2OCCCCN2CCCCCC2)cc1 | active: 7.94 µM | 
62 | NS(=O)(=O)c1ccc(N/N=C/c2cn(-c3ccccc3)nc2-c2cccs2)cc1 | active: 10 µM | 
63 | COC(=O)C(C)Sc1nc2c(c(=O)[nH]c(=O)n2C)n1CCCc1ccccc1 (stereo not given) | inconclusive: 89.1 µM [inhibitor, single point] | 
64 | O=C(N/N=C/c1cc(Br)c(Br)o1)c1cccnc1 | inconclusive: 25.1 µM [inhibitor, single point] | 
65 | O=C(CSc1ccc(-c2ccccn2)nn1)NC1CCCCC1 | inactive | 
66 | C[C@@H]1C=C[C@](Cc2ccccc2)(C(=O)NCCc2c[nH]c3ccccc23)N1C(=O)c1ccccc1 | active: 50.1 µM | 
67 | CCCCNC(=O)COC(=O)c1ccc(Cl)c(S(N)(=O)=O)c1 | inconclusive: 0.141 µM [inhibitor, full curve, poor fit] | 
68 | COc1ccc(S(=O)(=O)NNC(=O)c2ccc(-n3c(C)ccc3C)cc2)cc1 | inconclusive: 50.1 µM [inhibitor, partial curve] | 
69 | N#Cc1ccc(OCC(=O)Nc2ccccc2NS(=O)(=O)c2cccs2)cc1 | inconclusive: 25.1 µM [inhibitor, single point] | 
70 | CCCCN1C(=O)C(=O)N(CC(=O)N2CCc3ccccc32)C1=O |  | inactive: 7.6% [at 2.33 µM]

Reference: PubChem BioAssay AID504332 (National Center for Advancing Translational Sciences (NCATS), 2011)
